The values that follow come from ChEMBL document CHEMBL4888484, “Replenishing the malaria drug discovery pipeline: Screening and hit evaluation of the MMV Hit Generation Library 1 (HGL1) against asexual blood stage Plasmodium falciparum ,using a nano luciferase reporter read-out” (2022).

Among all 150,000 compounds or so, about 540 (0.36%) showed an effect of 50% or more. This is one part of the list.

In this experiment the test system is Plasmodium falciparum. The experiment can be described thus: Primary screen in NF54 nanoGlo assay, in single point, at 2uM, 72h; a lower Z score goes with more inhibition. The format is functional, Erythrocyte. Conditions: timepoint 72 hour.
Consider `CC(=O)c1ccc(NCCc2cn3c(n2)CCCC3)nc1`, for which the “% Inhibition” value came to 0% and the Z score was 0.01.

For the compound `CC[C@H](NC(=O)CN1CCOCC1)c1cc(C)ccn1`, the “% Inhibition” value is recorded as -6% and the Z score came to 0.82.

Take `CC1CCC(NC(=O)CCNS(C)(=O)=O)CC1` (stereo unspecified): the “% Inhibition” value is listed as -7% and the Z score was 1.4.

Regarding `Cn1nccc1C1CC(NC(=O)N2CCc3cccc(Cl)c3C2)CCO1` (stereo unspecified), the “% Inhibition” value was -1% and the Z score is 0.12.

Consider `COC[C@@H]1CCC[C@@H]1n1ccnc1-c1ccccc1C(F)(F)F`, for which the “% Inhibition” value was -2% and the Z score came to 0.4.

With `COc1ccc(S(=O)(=O)Nc2ccc3c(c2)sc(=O)n3Cc2ccccc2)cc1OC`, the “% Inhibition” value is recorded as 4% and the Z score is -0.51.

Take `Cc1ccccc1N1C[C@H](C)N(C(=O)c2c[nH]nc2-n2cnnn2)CC1=O`: the “% Inhibition” value is listed as -13% and the Z score turned out to be 2.18.

Turning to `COc1cccc(NC(=O)Nc2cc(C)c3nc(NS(=O)(=O)c4ccc(C)cc4)sc3c2)c1`, the “% Inhibition” value is recorded as 32% and the Z score was -3.62.

For `CN(C)C[C@H]1CN(Cc2noc(C3CC3)n2)CCO1`, the “% Inhibition” value is reported as 3% and the Z score was -0.6.

On to `CCC(=O)N1CCc2ccc(OCc3nc(C(=O)N(C)Cc4ccco4)cs3)cc2[C@@H]1c1ccc(F)cc1`, for which the “% Inhibition” value is recorded as -7% and the Z score turned out to be 0.64.

Take `Cc1c[nH]c(CN(C)C(=O)N[C@@H](C)CCC(C)C)n1`: the “% Inhibition” value is -8% and the Z score turned out to be 1.3.

Take `CCNC(=O)N(C)C[C@H]1COCCO1`: the “% Inhibition” value stood at 1% and the Z score is given as -0.16.

In the case of `CN1CCN(CCNC(=O)c2ccc(NC(=O)c3nnc(COc4ccc(F)cc4)s3)cc2)CC1`, the “% Inhibition” value was -5% and the Z score came to 0.56.

Turning to `Cc1nn(CC(F)F)cc1C(=O)N1CCCc2ccnc(N(C)C)c21`, the “% Inhibition” value is given as -8% and the Z score amounted to 0.95.

As to `O=C(NCc1ccccc1)[C@H]1CCN(CC2CC(F)(F)C2)C1`, the “% Inhibition” value is -21% and the Z score is reported as 2.24.

For `O=C(O)[C@@H](c1ccc(N2CCCCC2)nc1)N1CCC(N2CCCC2)CC1`, the “% Inhibition” value is listed as 13% and the Z score was -1.88.

Turning to `CCCn1nc(C)c2[nH]c(-c3cnn(C(C)C)c3)nc21`, the “% Inhibition” value is -12% and the Z score was 1.37.

For `CC(C)n1ccc(CNC(=O)C(=O)Nc2cccc(C#N)c2)n1`, the “% Inhibition” value is on record as 3% and the Z score is -0.38.

As to `CN1N=C(C(=O)NCCc2ccc3c(c2)OCO3)CCC1=O`, the “% Inhibition” value is listed as -7% and the Z score is recorded as 1.42.

`COC[C@](C)(CC(=O)OC)NCCOc1cccc(C#N)c1`: the “% Inhibition” value is -11% and the Z score is 1.49.

Regarding `COCCn1cncc1CNc1ncnc2onc(C)c12`, the “% Inhibition” value is 0% and the Z score is -0.03.

Consider `CO[C@@]12CC[C@H](O)C[C@@H]1N(C(=O)c1cccc(-n3cnnc3)n1)CC2`, for which the “% Inhibition” value was determined as 7% and the Z score is -1.35.

For `O=C1N[C@H]2CCC[C@@H]1CN(C(=O)c1cc(Cl)ccc1F)C2`, the “% Inhibition” value was -5% and the Z score stood at 0.9.

Turning to `COc1cc(C(=O)NCCc2ccccc2)cc(OC)c1OCc1ccccc1`, the “% Inhibition” value was -3% and the Z score came to 0.5.

Take `COc1ccc(CC[C@H](C)NC(=O)NCCCN2CCCC2=O)cc1`: the “% Inhibition” value is 32% and the Z score was -1.05.

Take `COc1ccc(NC(=O)CN2C(=O)CC3(CCCC3)NC2=O)cc1`: the “% Inhibition” value was -9% and the Z score was determined as 1.16.

`COCCN(CC(C)C)C(=O)Nc1ccn(CCc2ccncc2)n1`: the “% Inhibition” value is recorded as -3% and the Z score was found to be 0.43.

With `COCCNS(=O)(=O)C1CON(C)C1c1cccc(OCc2ccccc2)c1` (stereo unspecified), the “% Inhibition” value stood at 7% and the Z score is -0.91.

`CN(C)C1=NC2(CCN(C/C=C/c3ccccc3)CC2)C(=O)N1`: the “% Inhibition” value amounted to 0% and the Z score was determined as 0.05.

`Cc1ccc(Oc2ncccc2CNC(=O)Cc2c[nH]c(=O)[nH]c2=O)cn1`: the “% Inhibition” value is given as -2% and the Z score is on record as 0.46.

As for `CN(C[C@H]1CCCOC1)c1ccc(C#N)cc1`, the “% Inhibition” value is on record as -1% and the Z score was 0.12.

With `Cc1cc(S(=O)(=O)N2CC[C@H](c3nnc[nH]3)C2)ccc1F`, the “% Inhibition” value is on record as -13% and the Z score is recorded as 1.73.

Turning to `O=S1(=O)CCc2nnc(C3CCCC3)n2CC1`, the “% Inhibition” value is 3% and the Z score was -0.62.

As to `Cc1ccc(-n2nc(C)c3c2NC(=O)C[C@@H]3c2ccc3c(c2)OCO3)cc1`, the “% Inhibition” value is recorded as -11% and the Z score came out at 1.15.

As to `CCC1(CC)C(NC(=O)c2cccc(C#N)c2Br)CC1OC` (stereo unspecified), the “% Inhibition” value was -7% and the Z score was found to be 0.89.

For `CS(=O)(=O)c1cccc(Br)c1NCCCOC1CCCCC1`, the “% Inhibition” value is -3% and the Z score was determined as 0.35.

As for `CC1(C)C(=O)NCCN1C(=O)c1nccc2ccccc12`, the “% Inhibition” value was -14% and the Z score was 1.42.

With `O=C(c1nc2ccccn2c1-c1ccc(F)cc1)N1CCCCC1`, the “% Inhibition” value is -8% and the Z score came to 1.25.

Consider `COCc1cccc(C(=O)Nc2nc(C3CC3)no2)c1`, for which the “% Inhibition” value is -3% and the Z score turned out to be 0.63.

Turning to `CNC(=O)[C@@H](C)CN(C)Cc1cc(Br)cc2c1OCC2`, the “% Inhibition” value was -2% and the Z score was determined as 0.2.

For the compound `O=C(NCCc1ccccc1F)c1ccc2ccccc2n1`, the “% Inhibition” value worked out at 1% and the Z score was -0.11.

Take `O=S(=O)(Nc1ccc(-n2cccn2)cc1C(F)(F)F)c1ccc2c(c1)OCCO2`: the “% Inhibition” value is recorded as -2% and the Z score was 0.34.

Take `C[C@H]1CCCCN1C(=O)Cn1cccc1-c1nc(-c2cccc(Cl)c2)no1`: the “% Inhibition” value is 10% and the Z score is -1.35.

As a reminder, the % Inhibition is the change of the read-out against control, counted positive when it falls.
